Source: PubChem BioAssay AID2675 (National Center for Advancing Translational Sciences (NCATS), 2010)
The whole screen tested about 280,000 compounds, of which about 100 (0.036%) were called active. The inconclusive results got no clear call from the source; some entries with a clear call stand among them for comparison. Calls come from the whole dose curve; as a rule, active = well fitted inhibition curve with a large enough effect in the signal ratio, with a control signal flat (not every such curve was filed as active); inconclusive = small, poorly fitted or top-dose-only effect, or effect the other way, or a change in a side signal; inactive = no such curve, though single readings can be large or run the other way; the % refers to the signal ratio. Potencies of inconclusive entries are doubtful fits and often do not repeat. “Side channel” marks fits to a control or component signal instead of the main read-out.

Molecular target: Muscleblind-like protein 1 (Homo sapiens) (UniProt Q9NR56)
UniProt Q9NR56, sequence (Q9NR56 whole entry, looked up): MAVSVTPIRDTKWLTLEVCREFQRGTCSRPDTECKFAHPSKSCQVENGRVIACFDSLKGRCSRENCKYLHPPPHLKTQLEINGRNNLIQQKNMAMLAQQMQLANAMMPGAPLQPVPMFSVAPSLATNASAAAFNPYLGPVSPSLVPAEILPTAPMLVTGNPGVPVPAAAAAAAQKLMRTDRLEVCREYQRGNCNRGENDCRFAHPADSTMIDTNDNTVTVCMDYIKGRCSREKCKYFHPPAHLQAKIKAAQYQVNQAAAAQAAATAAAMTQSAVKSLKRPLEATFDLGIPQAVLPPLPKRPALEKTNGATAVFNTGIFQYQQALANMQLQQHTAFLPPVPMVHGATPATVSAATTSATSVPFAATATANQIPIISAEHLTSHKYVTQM
Assay: qHTS Assay for Inhibitors of MBNL1-poly(CUG) RNA binding
Conditions: TR-FRET MBNL1-His/biotin-(CUG)12 binding, 665/545 ratio; activity change, negative = inhibition: at 57.5 µM (top of the series)
Outline: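 Compounds (final 92 nM to 58 uM) are added to His-tagged MBNL1 and biotin-(CUG)12, then terbium anti-His antibody and streptavidin-XL665 (5 nM final). After 60 min at room temperature, the 665/545 nm ratio is read.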
% is set by controls: 0 for no effect and ±100 for the full control effect; potency is the fitted concentration of half-maximal effect; tags give direction and shape of the fitted curve or compound fluorescence and quenching.

Row | SMILES | Potency | activity change, negative = inhibition
1 | COC(=O)c1cc(=O)n(CCc2ccc(OC)c(OC)c2)c(=Nc2ccc(F)c(Cl)c2)s1 | inactive | 
2 | C=CCn1c(-c2cccc(OC)c2)nc2nc3ccccc3nc21 | inconclusive: 17.8 µM [quencher, side channel, partial curve] | 
3 | CN(CC(=O)NCCc1ccccc1)S(=O)(=O)c1cccc2nsnc12 | inconclusive: 3.55 µM [quencher, side channel, partial curve] | 
4 | Cc1cccc(N2CCC(N3CCN(C4CCCCC4)C(CCO)C3)CC2)c1C (stereo unspecified) | inconclusive: 22.4 µM [quencher, side channel, partial curve] | 
5 | COc1cc(CNc2cccc(C(=O)O)c2)cc(Br)c1OCC(=O)NC(C)(C)C | inconclusive: 100 µM [inhibitor, partial curve, poor fit] | 
6 | COc1ccc(C2=NS(=O)(=O)N(C)C(C(=O)NC3CCCC3)=C2)cc1 | inconclusive: 20 µM [quencher, side channel, partial curve] | 
7 | Cc1ccc2nc(C)c(C(=O)NN=C3CCCCCC3)n2c1 | inactive | 
8 | CCOc1ccc(S(=O)(=O)n2c(C)nc3ccccc32)cc1 | inactive | 
9 | COc1cccc(/C=C2\SC(=O)N(CCC(=O)NCCCn3ccnc3)C2=O)c1 | inconclusive: 15.8 µM [quencher, side channel, partial curve] | 
10 | O=C(Nc1ccccc1Cl)C1C2CCC3C(CCC21)C3(Cl)Cl (stereo unspecified) | inconclusive: 11.2 µM [fluorescent, side channel, partial curve, poor fit] | 
11 | Cc1ccccc1N=C1c2ccccc2C(=O)C1[N+](=O)[O-] (stereo unspecified) | inconclusive: 25.1 µM [quencher, side channel, partial curve] | 
12 | O=C(O)c1ccc2c(c1)C(=O)N(c1cccc(C(=O)/C=C/c3ccccc3)c1)C2=O | inconclusive: 11.2 µM [quencher, side channel, partial curve] | 
13 | Cc1ccc2c(c1)S/C(=C\c1cccc[n+]1C)N2CCO | inconclusive: 12.6 µM [quencher, side channel, partial curve] | 
14 | COc1ccc(C(=O)NC(=S)NNC(=O)c2ccc(O)cc2)cc1[N+](=O)[O-] | inconclusive: 28.2 µM [quencher, side channel, single point] | 
15 | Cc1cc(C(=O)N2CCN(Cc3ccccc3)CC2)ccc1[N+](=O)[O-] | inconclusive: 12.6 µM [quencher, side channel, partial curve] | 
16 | N=c1c(S(=O)(=O)c2ccc(Cl)cc2)cc2c(=O)n3ccccc3nc2n1CCN1CCOCC1 | inconclusive: 5.01 µM [quencher, side channel, partial curve] | 
17 | CCCCN(C)C(=O)Cn1nc(-c2ccc(Cl)cc2)ccc1=O | inconclusive: 28.2 µM [quencher, side channel, partial curve] | 
18 | CCOC(=O)c1nc(Nc2ccc(C(=O)OC)cc2)c2ccccc2n1 | inconclusive: 12.6 µM [quencher, side channel, partial curve] | 
19 | CC(=O)CSc1nc2ccccc2o1 | inactive | 
20 | COc1cc(NS(=O)(=O)c2ccc(C)cc2)c2ncccc2c1 | inactive | 
21 | Nc1ccc(Nc2ccc([N+](=O)[O-])cc2[N+](=O)[O-])cc1 | inconclusive: 6.31 µM [quencher, side channel, partial curve] | 

Row | SMILES | Potency | activity change, negative = inhibition
22 | Cc1ccc(NC(=O)Cn2cnc3cc([N+](=O)[O-])ccc3c2=O)c(Cl)c1 | inconclusive: 0.891 µM [quencher, side channel, full curve] | 
23 | O=C(Cn1nc(Cl)nc1Cl)c1cc2ccccc2oc1=O | inconclusive: 14.1 µM [quencher, partial curve] | 
24 | COc1cc(/C=C(/C#N)c2nc3ccccc3[nH]2)ccc1OCc1ccc(C(=O)O)o1 | inconclusive: 17.8 µM [quencher, side channel, partial curve] | 
25 | CC(=O)N1CCOc2ccc(S(=O)(=O)NCC3CCC(C(=O)Nc4ncccc4C)CC3)cc21 (stereo unspecified) | inactive | 
26 | Cc1ccc2nc(C)cc(N/N=C/c3ccccc3O)c2c1 | inactive | 
27 | Cc1cc(-c2n[nH]c(=S)n2-c2ccc(F)cc2)nn1C | inactive | 
28 | CCN(CC)S(=O)(=O)c1ccc(/C=C/C(=O)OCC(=O)c2c(N)n(C)c(=O)n(C)c2=O)cc1 | inconclusive: 17.8 µM [quencher, side channel, partial curve] | 
29 | CCOC(=O)c1c(C)oc2c1c(CN1CCN(CCO)CC1)c(O)c1ccccc12 | inactive | 
30 | O=c1cc(CSc2ccc([N+](=O)[O-])cc2)nc2sccn12 | inconclusive: 3.16 µM [quencher, side channel, full curve] | 
31 | CCc1cc2cccc(C)c2nc1SCC(=O)c1ccc(NC(C)=O)cc1 | inconclusive: 6.31 µM [quencher, side channel, single point] | 
32 | O=C(CSc1ccc(-c2ccccn2)nn1)c1ccc([N+](=O)[O-])cc1 | inconclusive: 10 µM [quencher, side channel, full curve, poor fit] | 
33 | O=c1[nH]c2cc3c(cc2cc1CN(Cc1nnnn1CC1CCCO1)C1CCCCC1)OCO3 (stereo unspecified) | inconclusive: 28.2 µM [quencher, side channel, single point] | 
34 | c1ccc(OCCOc2ccccc2-c2nnco2)cc1 | inactive | 
35 | CCCCc1ccc(/C=C(\C#N)C(N)=S)s1 | inconclusive: 39.8 µM [quencher, side channel, single point] | 
36 | CC(=O)c1ccc(OC(=O)CN2C(=O)c3ccccc3C2=O)cc1 | inconclusive: 39.8 µM [quencher, side channel, single point] | 
37 | CC(=O)C1=C(O)C(=O)N(c2nccs2)C1c1ccccc1 (stereo unspecified) | inconclusive: 20 µM [quencher, side channel, partial curve] | 
38 | O=C1c2ccccc2-c2c1cccc2C(=O)N1CCN(C(=O)c2ccco2)CC1 |  | inconclusive: 49.2% [activator]
39 | COc1ccc(CC(=O)N2CCN=C2SCc2cccc([N+](=O)[O-])c2)cc1 | inconclusive: 35.5 µM [quencher, side channel, single point] | 
40 | O=C(O)c1ccc2c(c1)C(=O)N(C(Cc1ccc(O)cc1)C(=O)O)C2=O (stereo unspecified) | inactive | 
41 | O=C(CCCN1C(=O)/C(=C/c2cccs2)SC1=S)Nc1ccc(O)c(C(=O)O)c1 | inconclusive: 22.4 µM [quencher, side channel, partial curve] | 
42 | Cc1cccc(NC(=O)c2ccc([N+](=O)[O-])o2)c1C | inconclusive: 5.01 µM [quencher, side channel, partial curve] | 

Row | SMILES | Potency | activity change, negative = inhibition
43 | Cc1c(O)ccc(/C=N/Nc2ncccc2[N+](=O)[O-])c1O | inconclusive: 3.16 µM [quencher, full curve] | 
44 | Cc1nsc(Nc2ccc([N+](=O)[O-])cc2)c1C#N | inconclusive: 1.78 µM [quencher, side channel, full curve, poor fit] | 
45 | Cc1nnc2n(c1=O)N=C(c1ccc(Cl)cc1)CS2 | inconclusive: 3.55 µM [quencher, side channel, full curve, poor fit] | 
46 | COc1cc([N+](=O)[O-])ccc1NC(=O)c1cccc(NC(=O)C(C)C)c1 | inconclusive: 10 µM [quencher, partial curve] | 
47 | COc1ccc(C(=O)N/C(=C\c2ccco2)C(=O)NCc2cccnc2)cc1 | inconclusive: 25.1 µM [quencher, side channel, single point] | 
48 | C=C(C)CNC(=S)N/N=C/c1ccc([N+](=O)[O-])cc1 | inconclusive: 4.47 µM [quencher, side channel, full curve] | 
49 | N#C/C(=C/c1ccc(-c2cc([N+](=O)[O-])ccc2Cl)o1)C(N)=O | inconclusive: 2.82 µM [quencher, side channel, full curve] | 
50 | CCOC(=O)C1=C(N2CCCCC2)c2cc3c(n2C1=O)CCCC3 | inconclusive: 14.1 µM [quencher, side channel, partial curve] | 
51 | ClCc1nc2ccccc2n1Cc1ccccc1 | inactive | 
52 | CCOC(=O)N1CCN(Cc2nc3cc(NC(=O)CC)ccc3n2CC)CC1 | inactive | 
53 | O=C(c1ccc([N+](=O)[O-])cc1)N(Cc1cccs1)C1CCS(=O)(=O)C1 (stereo unspecified) | inconclusive: 2 µM [quencher, side channel, partial curve] | 
54 | O=C(/C(=C/O)N=Nc1ccccc1)c1ccco1 | inconclusive: 15.8 µM [quencher, side channel, partial curve] | 
55 | Cc1ccc(Cl)cc1N1CCN(C(=O)CCS(=O)(=O)c2cccc3nonc23)CC1 | inconclusive: 35.5 µM [quencher, side channel, single point] | 
56 | O=C(NC1CCCCC1)c1ccc(-c2cccc([N+](=O)[O-])c2)o1 | inconclusive: 4.47 µM [quencher, side channel, partial curve] | 
57 | COc1cc(NC(=O)c2ccccc2[N+](=O)[O-])c(C(=O)O)cc1OC | inconclusive: 39.8 µM [quencher, single point] | 
58 | CC(C)=CC(=O)OCc1csc(CC(=O)Nc2ccccc2C)n1 | inactive | 
59 | Cc1cc(=O)[nH]c(N/N=C/c2ccc(N(C)C)cc2)n1 | inconclusive: 15.8 µM [quencher, side channel, partial curve] | 
60 | CCOc1cc(C)c(S(=O)(=O)NC2CCCCC2)cc1C | inactive | 
61 | CC1C/C(=N\Nc2ccc(S(N)(=O)=O)cc2[N+](=O)[O-])CC(C)(C)C1 (stereo unspecified) | inconclusive: 28.2 µM [quencher, side channel, partial curve, poor fit] | 
